{"source": "the supplement of paper PMC8728848", "assay_in_all_cases": "glycan array binding signal (z-score within array); higher = stronger binding", "details_in_all_cases": "glycan notation: IUPAC condensed, linker removed", "key": {"[1]": {"biological_target": "Fuc(a1-3)[Gal(b1-4)]Glc6S", "how_it_was_run": "(§1)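 Negative Z-scores can be read as non-binding. The Z-score is calculated within each array and then averaged across arrays of one protein sequence at different concentrations or buffers and across linkers. Arrays, 3228 in all, were curated from the Consortium for Functional Glycomics database and kept only where the protein sequence was available.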"}, "[2]": {"biological_target": "Fuc(a1-3)[Gal(b1-4)]GlcNAc", "how_it_was_run": "as §1"}, "[3]": {"biological_target": "Fuc(a1-3)[Gal(b1-4)]GlcNAc(b1-2)Man(a1-3)[Fuc(a1-3)[Gal(b1-4)]GlcNAc(b1-2)Man(a1-6)]Man(b1-4)GlcNAc(b1-4)GlcNAc", "how_it_was_run": "as §1"}, "[4]": {"biological_target": "Fuc(a1-3)[Gal(b1-4)]GlcNAc(b1-2)Man(a1-6)[Gal(b1-4)GlcNAc(b1-2)Man(a1-3)]Man(b1-4)GlcNAc(b1-4)GlcNAc", "how_it_was_run": "as §1"}, "[5]": {"biological_target": "Fuc(a1-3)[Gal(b1-4)]GlcNAc(b1-3)Gal(b1-3)[Fuc(a1-4)]GlcNAc", "how_it_was_run": "as §1"}, "[6]": {"biological_target": "Fuc(a1-3)[Gal(b1-4)]GlcNAc(b1-4)Gal(b1-4)[Fuc(a1-3)]GlcNAc", "how_it_was_run": "as §1"}, "[7]": {"biological_target": "Fuc(a1-3)[Gal(b1-4)]GlcNAc(b1-4)Gal(b1-4)[Fuc(a1-3)]GlcNAc(b1-4)Gal(b1-4)[Fuc(a1-3)]GlcNAc", "how_it_was_run": "as §1"}, "[8]": {"biological_target": "Fuc(a1-3)[Gal(b1-4)]GlcNAc6S", "how_it_was_run": "as §1"}, "[9]": {"biological_target": "Fuc(a1-3)[Gal3S(b1-4)]Glc6S", "how_it_was_run": "as §1"}, "[10]": {"biological_target": "Fuc(a1-3)[Gal3S(b1-4)]GlcNAc", "how_it_was_run": "as §1"}, "[11]": {"biological_target": "Fuc(a1-3)[Gal3S(b1-4)]GlcNAc6S", "how_it_was_run": "as §1"}, "[12]": {"biological_target": "Fuc(a1-3)[GalNAc(b1-4)]GlcNAc", "how_it_was_run": "as §1"}, "[13]": {"biological_target": "Fuc(a1-4)GlcNAc", "how_it_was_run": "as §1"}, "[14]": {"biological_target": "Fuc(b1-3)GlcNAc", "how_it_was_run": "as §1"}, "[15]": {"biological_target": "Gal(a1-2)Gal", "how_it_was_run": "as §1"}, "[16]": {"biological_target": "Gal(a1-3)Gal", "how_it_was_run": "as §1"}, "[17]": {"biological_target": "Gal(a1-3)Gal(b1-3)GlcNAc", "how_it_was_run": "as §1"}, "[18]": {"biological_target": "Gal(a1-3)Gal(b1-4)Glc", "how_it_was_run": "as §1"}, "[19]": {"biological_target": "Gal(a1-3)Gal(b1-4)GlcNAc", "how_it_was_run": "as §1"}, "[20]": {"biological_target": "Gal(a1-3)Gal(b1-4)[Fuc(a1-3)]GlcNAc", "how_it_was_run": "as §1"}, "[21]": {"biological_target": "Gal(a1-3)Gal(b1-4)[Fuc(a1-3)]GlcNAc(b1-2)Man(a1-3)[Gal(a1-3)Gal(b1-4)[Fuc(a1-3)]GlcNAc(b1-2)Man(a1-6)]Man(b1-4)GlcNAc(b1-4)GlcNAc", "how_it_was_run": "as §1"}, "[22]": {"biological_target": "Gal(a1-3)GalNAc", "how_it_was_run": "as §1"}, "[23]": {"biological_target": "Gal(a1-3)[Gal(a1-4)]Gal(b1-4)GlcNAc", "how_it_was_run": "as §1"}, "[24]": {"biological_target": "Gal(a1-4)Gal(b1-4)Glc", "how_it_was_run": "as §1"}, "[25]": {"biological_target": "Gal(a1-4)Gal(b1-4)GlcNAc", "how_it_was_run": "as §1"}, "[26]": {"biological_target": "Gal(a1-4)Gal(b1-4)GlcNAc(b1-3)Gal(b1-4)Glc", "how_it_was_run": "as §1"}, "[27]": {"biological_target": "Gal(a1-4)GlcNAc", "how_it_was_run": "as §1"}, "[28]": {"biological_target": "Gal(a1-6)Glc", "how_it_was_run": "as §1"}, "[29]": {"biological_target": "Gal(b1-2)Gal", "how_it_was_run": "as §1"}, "[30]": {"biological_target": "Gal(b1-3)Gal", "how_it_was_run": "as §1"}, "[31]": {"biological_target": "Gal(b1-3)Gal(b1-4)GlcNAc", "how_it_was_run": "as §1"}, "[32]": {"biological_target": "Gal(b1-3)Gal(b1-4)GlcNAc(b1-2)Man(a1-3)[Gal(b1-3)Gal(b1-4)GlcNAc(b1-2)Man(a1-6)]Man(b1-4)GlcNAc(b1-4)GlcNAc", "how_it_was_run": "as §1"}, "[33]": {"biological_target": "Gal(b1-3)GalNAc", "how_it_was_run": "as §1"}, "[34]": {"biological_target": "Gal(b1-3)GalNAc(a1-3)[Fuc(a1-2)]Gal(b1-4)Glc", "how_it_was_run": "as §1"}, "[35]": {"biological_target": "Gal(b1-3)GalNAc(a1-3)[Fuc(a1-2)]Gal(b1-4)GlcNAc", "how_it_was_run": "as §1"}, "[36]": {"biological_target": "Gal(b1-3)GalNAc(b1-3)Gal(a1-4)Gal(b1-4)Glc", "how_it_was_run": "as §1"}, "[37]": {"biological_target": "Gal(b1-3)GalNAc(b1-4)Gal(b1-4)Glc", "how_it_was_run": "as §1"}, "[38]": {"biological_target": "Gal(b1-3)GalNAc(b1-4)[Neu5Ac(a2-3)]Gal(b1-4)Glc", "how_it_was_run": "as §1"}, "[39]": {"biological_target": "Gal(b1-3)GlcNAc", "how_it_was_run": "as §1"}, "[40]": {"biological_target": "Gal(b1-3)GlcNAc(b1-2)Man(a1-3)[Gal(b1-3)GlcNAc(b1-2)Man(a1-6)]Man(b1-4)GlcNAc(b1-4)GlcNAc", "how_it_was_run": "as §1"}, "[41]": {"biological_target": "Gal(b1-3)GlcNAc(b1-2)Man(a1-3)[Gal(b1-3)GlcNAc(b1-2)Man(a1-6)]Man(b1-4)GlcNAc(b1-4)[Fuc(a1-6)]GlcNAc", "how_it_was_run": "as §1"}, "[42]": {"biological_target": "Gal(b1-3)GlcNAc(b1-3)Gal(b1-3)GlcNAc", "how_it_was_run": "as §1"}, "[43]": {"biological_target": "Gal(b1-3)GlcNAc(b1-3)Gal(b1-4)Glc", "how_it_was_run": "as §1"}, "[44]": {"biological_target": "Gal(b1-3)GlcNAc(b1-3)Gal(b1-4)GlcNAc", "how_it_was_run": "as §1"}, "[45]": {"biological_target": "Gal(b1-3)[Fuc(a1-4)]GlcNAc", "how_it_was_run": "as §1"}}, "note": "The other results are listed elsewhere or left out."}
{"binder": "Neuropilin-1 (Rattus norvegicus), Q9QWJ9 (protein) MERGLPLLCATLALALALAGAFRSDKCGGTIKIENPGYLTSPGYPHSYHPSEKCEWLIQAPEPYQRIMINFNPHFDLEDRDCKYDYVEVIDGENEGGRLWGKFCGKIAPSPVVSSGPFLFIKFVSDYETHGAGFSIRYEIFKRGPECSQNYTAPTGVIKSPGFPEKYPNSLECTYIIFAPKMSEIILEFESFDLEQDSNPPGGVFCRYDRLEIWDGFPEVGPHIGRYCGQKTPGRIRSSSGILSMVFYTDSAIAKEGFSANYSVLQSSISEDFKCMEALGMESGEIHSDQITASSQYGTNWSVERSRLNYPENGWTPGEDSYREWIQVDLGLLRFVTAVGTQGAISKETKKKYYVKTYRVDISSNGEDWITLKEGNKAIIFQGNTNPTDVVFGVFPKPLITRFVRIKPASWETGISMRFEVYGCKITDYPCSGMLGMVSGLISDSQITASNQGDRNWMPENIRLVTSRTGWALPPSPHPYINEWLQVDLGDEKIVRGVIIQGGKHRENKVFMRKFKIAYSNNGSDWKMIMDDSKRKAKSFEGNNNYDTPELRAFTPLSTRFIRIYPERATHSGLGLRMELLGCEVEVPTAGPTTPNGNPVDECDDDQANCHSGTGDDFQLTGGTTVLATEKPTIIDSTIQSEFPTYGFNCEFGWGSHKTFCHWEHDSHAQLRWRVLTSKTGPIQDHTGDGNFIYSQADENQKGKVARLVSPVVYSQSSAHCMTFWYHMSGSHVGTLRVKLHYQKPEEYDQLVWMVVGHQGDHWKEGRVLLHKSLKLYQVIFEGEIGKGNLGGIAVDDISINNHIPQEDCAKPTDLDKKNTEIKIDETGSTPGYEEGKGDKNISRKPGNVLKTLDPILITIIAMSALGVLLGAVCGVVLYCACWHNGMSERNLSALENYNFELVDGVKLKKDKLNPQSNYSEA", "values": [{"measurement": "glycan array binding signal (z-score)", "setting": "[1]", "value": 0.686}, {"measurement": "glycan array binding signal (z-score)", "setting": "[2]", "value": -0.276}, {"measurement": "glycan array binding signal (z-score)", "setting": "[3]", "value": 1.35}, {"measurement": "glycan array binding signal (z-score)", "setting": "[4]", "value": -0.363}, {"measurement": "glycan array binding signal (z-score)", "setting": "[5]", "value": -0.195}, {"measurement": "glycan array binding signal (z-score)", "setting": "[6]", "value": -0.001}, {"measurement": "glycan array binding signal (z-score)", "setting": "[7]", "value": -0.172}, {"measurement": "glycan array binding signal (z-score)", "setting": "[8]", "value": 0.233}, {"measurement": "glycan array binding signal (z-score)", "setting": "[9]", "value": 3.8}, {"measurement": "glycan array binding signal (z-score)", "setting": "[10]", "value": -0.201}, {"measurement": "glycan array binding signal (z-score)", "setting": "[11]", "value": 1.08}, {"measurement": "glycan array binding signal (z-score)", "setting": "[12]", "value": -0.216}, {"measurement": "glycan array binding signal (z-score)", "setting": "[13]", "value": -0.269}, {"measurement": "glycan array binding signal (z-score)", "setting": "[14]", "value": -0.269}, {"measurement": "glycan array binding signal (z-score)", "setting": "[15]", "value": 0.067}, {"measurement": "glycan array binding signal (z-score)", "setting": "[16]", "value": -0.1}, {"measurement": "glycan array binding signal (z-score)", "setting": "[17]", "value": -0.232}, {"measurement": "glycan array binding signal (z-score)", "setting": "[18]", "value": -0.313}, {"measurement": "glycan array binding signal (z-score)", "setting": "[19]", "value": -0.169}, {"measurement": "glycan array binding signal (z-score)", "setting": "[20]", "value": -0.231}, {"measurement": "glycan array binding signal (z-score)", "setting": "[21]", "value": 4.58}, {"measurement": "glycan array binding signal (z-score)", "setting": "[22]", "value": -0.354}, {"measurement": "glycan array binding signal (z-score)", "setting": "[23]", "value": -0.114}, {"measurement": "glycan array binding signal (z-score)", "setting": "[24]", "value": -0.279}, {"measurement": "glycan array binding signal (z-score)", "setting": "[25]", "value": -0.229}, {"measurement": "glycan array binding signal (z-score)", "setting": "[26]", "value": -0.247}, {"measurement": "glycan array binding signal (z-score)", "setting": "[27]", "value": -0.316}, {"measurement": "glycan array binding signal (z-score)", "setting": "[28]", "value": -0.36}, {"measurement": "glycan array binding signal (z-score)", "setting": "[29]", "value": -0.273}, {"measurement": "glycan array binding signal (z-score)", "setting": "[30]", "value": 0.132}, {"measurement": "glycan array binding signal (z-score)", "setting": "[31]", "value": -0.301}, {"measurement": "glycan array binding signal (z-score)", "setting": "[32]", "value": 2.39}, {"measurement": "glycan array binding signal (z-score)", "setting": "[33]", "value": -0.208}, {"measurement": "glycan array binding signal (z-score)", "setting": "[34]", "value": -0.323}, {"measurement": "glycan array binding signal (z-score)", "setting": "[35]", "value": -0.26}, {"measurement": "glycan array binding signal (z-score)", "setting": "[36]", "value": -0.203}, {"measurement": "glycan array binding signal (z-score)", "setting": "[37]", "value": -0.305}, {"measurement": "glycan array binding signal (z-score)", "setting": "[38]", "value": -0.257}, {"measurement": "glycan array binding signal (z-score)", "setting": "[39]", "value": 0.051}, {"measurement": "glycan array binding signal (z-score)", "setting": "[40]", "value": -0.258}, {"measurement": "glycan array binding signal (z-score)", "setting": "[41]", "value": -0.174}, {"measurement": "glycan array binding signal (z-score)", "setting": "[42]", "value": -0.264}, {"measurement": "glycan array binding signal (z-score)", "setting": "[43]", "value": -0.265}, {"measurement": "glycan array binding signal (z-score)", "setting": "[44]", "value": -0.189}, {"measurement": "glycan array binding signal (z-score)", "setting": "[45]", "value": -0.008}]}
